{"source": "paper PMC4490372", "about": "“Architecture of TFIIIC and its role in RNA polymerase III pre-initiation complex assembly” (Nature Communications, 2015)", "binders": {"B1": {"name": "τ138 (546–693), eWH-τIR (domain or fragment, S. cerevisiae, UniProt P34111 546-693, looked up)", "chain": "SARSLRSLQRQRAILKVMNTIGGVAYLREQFYESVSKYMGSTTTLDKKTVRGDVDLMVESEKLGARTEPVSGRKIIFLPTVGEDAIQRYILKEKDSKKATFTDVIHDTEIYFFDQTEKNRFHRGKKSVERIRKFQNRQKNAKIKASDD", "notes": "the cloning of this construct is not described; also called τ138 (eWH-τIR); central region of τ138; source: purified; expression of this construct not described"}}, "key": {"[1]": {"molecular_target": "T1, GST-tagged τ131 (123–566), wild type (S. cerevisiae) (UniProt P33339)", "T1 sequence": "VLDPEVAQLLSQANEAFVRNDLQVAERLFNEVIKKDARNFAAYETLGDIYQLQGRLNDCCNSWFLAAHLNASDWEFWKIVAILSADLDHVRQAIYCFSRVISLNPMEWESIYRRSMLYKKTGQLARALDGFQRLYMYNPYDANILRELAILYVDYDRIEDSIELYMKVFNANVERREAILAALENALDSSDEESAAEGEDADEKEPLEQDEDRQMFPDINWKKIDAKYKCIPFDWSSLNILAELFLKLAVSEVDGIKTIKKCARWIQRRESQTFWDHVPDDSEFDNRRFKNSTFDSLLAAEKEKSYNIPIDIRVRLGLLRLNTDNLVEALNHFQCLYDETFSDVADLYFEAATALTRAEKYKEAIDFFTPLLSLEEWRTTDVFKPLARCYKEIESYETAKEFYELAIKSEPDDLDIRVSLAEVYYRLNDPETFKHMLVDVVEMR", "assay": "pull-down; competition of τ138 and Bdp1 with the shorter TPR array of τ131; data not shown; both purified"}, "[2]": {"molecular_target": "T2, GST-tagged τ131 (123–566) D468K (S. cerevisiae) (UniProt P33339)", "T2 sequence": "T1 sequence with D346K", "assay": "pull-down; 15 μg GST-tagged τ131 on Glutathione Sepharose 4B; 300 nM τ138 or Bdp1, or 1 μM Brf1–TBP; 50 mM Tris pH 7.5, 150 mM NaCl, 2 mM DTT, 0.1% Tween20; 4 °C, 4 h; both purified"}, "[3]": {"molecular_target": "T3, GST-tagged τ131 (123–566) L469K (S. cerevisiae) (UniProt P33339)", "T3 sequence": "T1 sequence with L347K", "assay": "pull-down; 15 μg GST-tagged τ131 on Glutathione Sepharose 4B; 300 nM τ138 or Bdp1, or 1 μM Brf1–TBP; 50 mM Tris pH 7.5, 150 mM NaCl, 2 mM DTT, 0.1% Tween20; 4 °C, 4 h; both purified"}, "[4]": {"molecular_target": "T1, GST-tagged τ131 (123–566), wild type (S. cerevisiae)", "assay": "pull-down; 15 μg GST-tagged τ131 on Glutathione Sepharose 4B; 300 nM τ138 or Bdp1, or 1 μM Brf1–TBP; 50 mM Tris pH 7.5, 150 mM NaCl, 2 mM DTT, 0.1% Tween20; 4 °C, 4 h; both purified"}}, "note": "Changes are numbered by the printed parent chain. No constants are given. Whether binding was seen depends on the method and setting. Some results given as binding are weak or reduced against the parent protein; the word gives no strength. Where a sequence is shown, tags or fusion partners need not be part of it.", "data": [{"binder": "B1", "values": [{"measurement": "binding", "setting": "[1]", "result": "binds"}, {"measurement": "binding", "setting": "[2]", "result": "no binding (tested: 300 nM τ138)"}, {"measurement": "binding", "setting": "[3]", "result": "no binding (tested: 300 nM τ138)"}, {"measurement": "binding", "setting": "[4]", "result": "binds"}]}]}
